From patent publication US10370425B2, “Peptide antagonists of the calcitonin CGRP family of peptide hormones and their use” (priority 2012, dated 2019)
Part of at least one peptide drawing is inferred or uncertain, most often the ends. Positions of bridges follow the written chain, without caps; N, C: chain ends. Residues, ends and D or L forms follow the SMILES beside them.

The molecules below were run against T1, amylin receptor, AMY1, a CT (calcitonin) receptor/RAMP1 (receptor-activity modifying protein) complex (Homo sapiens, UniProt O60894+P30988) (assay: Calcium flux assay (FLIPR Calcium 4) of inhibition of α-CGRP stimulation in CHO-K1/AMY1/Gα15 cells). Details: CHO-K1/AMY1/Gα15 cells stimulated with 32 nM (EC80) α-CGRP; five concentrations from 1 μM, five-fold dilutions, duplicate.
T1 construct: host or cells: CHO-K1/AMY1/Gα15
Type: cell-based
Experimental: Using a calcium flux assay, the dose-dependent inhibitory response of peptide antagonists of the present invention on an amylin receptor, AMY1, a CT (calcitonin) receptor/RAMP1 (receptor-activity modifying protein) complex was determined. The recombinant cell line CHO-K1/AMY1/Gα15 (GenScript, Piscataway, N.J., Catalog No. M00475) was employed in the assay. Peptide antagonist activities were tested, in duplicate, at five different concentrations, starting with 1 μM and serially diluted five-fold, in DMSO. AC187 (SEQ ID NO: 55), a known amylin receptor antagonist (available for example from Tocris Bioscience, Minneapolis, Minn., Catalog No. 3419) was used as a positive control in the assays, and human α-CGRP, a known amylin receptor agonist (SEQ ID NO:56) , (available for example from Tocris Bioscience, Minneapolis, Minn., Catalog No. 3012) was used as a positive control in the assays. The FLIPR® Calcium 4 Assay Kit (Molecular Devices, Sunnyvale, Calif.) was used.
Human α-CGRP having the amino acid sequence, NH2-[…]-NH2 (SEQ ID NO:56) and AC187 having the sequence […] (SEQ ID NO: 55) were employed as negative and positive controls, respectively. Stock solutions were further diluted in HBSS-HEPES buffer to make 5×final control solutions.
CHO-K1/AMY1/Gα15 cells were seeded in a 384-well black wall, clear bottom plate at a density of 20,000 cells/well in 20 μL of growth medium 20 hours prior to the day of the experiment and maintained at 37° C./5% CO2.
Per the assay kit protocol, dye-loading solution (at 2×final concentration) was added into the assay plate, 20 μL per well. Compound solution (at 5 ×final concentration) was added into the assay plate, 10 uL per well. The assay plate was placed into a 37° C. incubator for 1 hour, then left for 15 min at RT. The agonist plate (at 5×EC80 concentration) was placed in Source 2. The total reading time was 120 sec. The agonist was added after 20 seconds reading of the baseline and the fluorescence signal was captured for another 100 seconds (21 s to 120 s).
In screening, cells stimulated with assay buffer were chosen as the background; cells stimulated with agonist (at […] concentration) were chosen as the negative control.
Data were recorded by ScreenWorks (version 3.1) as FMD files and stored on the GenScript computer network for off-line analysis. Data acquisition and analyses was performed using ScreenWorks (version 3.1) program and exported to Excel. The average value of 20 (1 s to 20 s) seconds reading was calculated as the baseline reading and the relative fluorescent units (ΔRFU) intensity values were calculated with the maximal fluorescent units (21 s to 120 s) subtracting the average value of baseline reading.
The IC50 value of AC187 was 8 μM. The inhibitory activity of the tested peptide antagonists was normalized with the negative control (AC187) and reported as % Inhibition, calculated from the following equation: % Inhibition=(ΔRFUcompound−ΔRFUBackground)/(ΔRFUNegative control−ΔRFUBackground) * 100% Inhibition was then plotted along the Y-axis, with the test concentrations as indicated on the X-axis. The peptides were tested at indicated concentrations and stimulated with 32 nM (EC80) α-CGRP (Mean +/− SD, n=2).

T1 sequence (P30988 25-474): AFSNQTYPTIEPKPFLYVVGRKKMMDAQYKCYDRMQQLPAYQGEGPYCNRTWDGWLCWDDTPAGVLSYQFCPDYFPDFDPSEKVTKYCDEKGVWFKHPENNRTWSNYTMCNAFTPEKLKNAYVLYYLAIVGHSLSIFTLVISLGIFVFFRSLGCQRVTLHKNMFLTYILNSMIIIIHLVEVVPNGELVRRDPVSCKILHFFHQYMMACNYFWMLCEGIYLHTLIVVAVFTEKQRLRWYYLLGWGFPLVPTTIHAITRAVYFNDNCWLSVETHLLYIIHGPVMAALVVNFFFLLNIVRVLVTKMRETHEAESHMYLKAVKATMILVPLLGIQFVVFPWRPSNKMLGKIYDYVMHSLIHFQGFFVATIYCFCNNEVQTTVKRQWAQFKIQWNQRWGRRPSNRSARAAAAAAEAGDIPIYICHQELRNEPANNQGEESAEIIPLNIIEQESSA
T1 sequence (O60894 27-148): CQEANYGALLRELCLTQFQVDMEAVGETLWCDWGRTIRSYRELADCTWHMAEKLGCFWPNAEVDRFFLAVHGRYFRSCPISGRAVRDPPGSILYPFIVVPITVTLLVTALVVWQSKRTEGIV

SMILES	IC50
CC(C)C[C@H](NC(=O)[C@H](CCCNC(=N)N)NC(=O)CNC(=O)[C@H](CC(C)C)NC(=O)[C@@H](NC(=O)[C@@H]1CSSC[C@H](NC(=O)[C@H](C)N)C(=O)N[C@@H](CC(N)=O)C(=O)N[C@@H](CC(C)C)C(=O)N[C@@H](CO)C(=O)N[C@@H](C)C(=O)N1)C(C)C)C(=O)N[C@@H](CO)C(=O)N[C@@H](CCC(N)=O)C(=O)N[C@@H](CCC(=O)O)C(=O)N[C@@H](CC(C)C)C(=O)N[C@@H](Cc1c[nH]cn1)C(=O)N[C@@H](CCCNC(=N)N)C(=O)N[C@@H](CC(C)C)C(=O)N[C@@H](CCC(N)=O)C(=O)N[C@H](C(=O)N[C@@H](Cc1ccc(O)cc1)C(=O)N1CCC[C@H]1C(=O)N[C@@H](CCCNC(=N)N)C(=O)N[C@H](C(=O)N[C@@H](CC(N)=O)C(=O)N[C@H](C(=O)NCC(=O)N[C@@H](CO)C(=O)N[C@@H](CCCCN)C(=O)N[C@@H](C)C(=O)N[C@@H](Cc1ccccc1)C(N)=O)C(C)C)[C@@H](C)O)[C@@H](C)O [compound 7] (H-ACNLSACVLGRLSQELHRLQTYPRTNVGSKAF-NH2; disulfide 2-7 (inferred))	8 nM
CC(C)C[C@H](NC(=O)[C@H](CCCNC(=N)N)NC(=O)CNC(=O)[C@H](CC(C)C)NC(=O)[C@@H](NC(=O)[C@@H]1CSSC[C@H](NC(=O)[C@H](C)N)C(=O)N[C@@H](CC(N)=O)C(=O)N[C@@H](CC(C)C)C(=O)N[C@@H](CO)C(=O)N[C@@H](C)C(=O)N1)C(C)C)C(=O)N[C@@H](CO)C(=O)N[C@@H](CCC(N)=O)C(=O)N[C@@H](CCC(=O)O)C(=O)N[C@@H](CC(C)C)C(=O)N[C@@H](Cc1c[nH]cn1)C(=O)N[C@@H](CCCNC(=N)N)C(=O)N[C@@H](CC(C)C)C(=O)N[C@@H](CCC(N)=O)C(=O)N[C@H](C(=O)N[C@@H](Cc1ccc(O)cc1)C(=O)N1CCC[C@H]1C(=O)N[C@H](C(=O)N[C@@H](CC(N)=O)C(=O)N[C@H](C(=O)NCC(=O)N[C@@H](CO)C(=O)NCC(=O)N[C@H](C(=O)N1CCC[C@H]1C(N)=O)[C@@H](C)O)[C@@H](C)O)[C@@H](C)O)[C@@H](C)O [compound 13] (H-ACNLSACVLGRLSQELHRLQTYPTNTGSGTP-NH2; disulfide 2-7 (inferred))	4 nM
CC(C)C[C@H](NC(=O)[C@H](CCCNC(=N)N)NC(=O)CNC(=O)[C@H](CC(C)C)NC(=O)[C@@H](NC(=O)[C@@H]1CSSC[C@H](NC(=O)[C@H](C)N)C(=O)N[C@@H](CCCNC(=N)N)C(=O)N[C@@H](Cc2ccccc2)C(=O)NCC(=O)N[C@@H](C)C(=O)N1)C(C)C)C(=O)N[C@@H](CO)C(=O)N[C@@H](CCC(N)=O)C(=O)N[C@@H](CCC(=O)O)C(=O)N[C@@H](CC(C)C)C(=O)N[C@@H](Cc1c[nH]cn1)C(=O)N[C@@H](CCCNC(=N)N)C(=O)N[C@@H](CC(C)C)C(=O)N[C@@H](CCC(N)=O)C(=O)N[C@H](C(=O)N[C@@H](Cc1ccc(O)cc1)C(=O)N1CCC[C@H]1C(=O)N[C@@H](CCCNC(=N)N)C(=O)N[C@H](C(=O)N[C@@H](CC(N)=O)C(=O)N[C@H](C(=O)NCC(=O)N[C@@H](CO)C(=O)N[C@@H](CCCCN)C(=O)N[C@@H](C)C(=O)N[C@@H](Cc1ccccc1)C(N)=O)C(C)C)[C@@H](C)O)[C@@H](C)O [compound 6] (H-ACRFGACVLGRLSQELHRLQTYPRTNVGSKAF-NH2; disulfide 2-7 (inferred))	33 nM
CC(C)C[C@H](NC(=O)[C@H](CCCNC(=N)N)NC(=O)CNC(=O)[C@H](CC(C)C)NC(=O)[C@@H](NC(=O)[C@@H]1CSSC[C@H](NC(=O)[C@H](C)N)C(=O)N[C@@H](CC(=O)O)C(=O)N[C@@H]([C@@H](C)O)C(=O)N[C@@H](C)C(=O)N[C@@H](CO)C(=O)N1)C(C)C)C(=O)N[C@@H](CO)C(=O)N[C@@H](CCC(N)=O)C(=O)N[C@@H](CCC(=O)O)C(=O)N[C@@H](CC(C)C)C(=O)N[C@@H](Cc1c[nH]cn1)C(=O)N[C@@H](CCCNC(=N)N)C(=O)N[C@@H](CC(C)C)C(=O)N[C@@H](CCC(N)=O)C(=O)N[C@H](C(=O)N[C@@H](Cc1ccc(O)cc1)C(=O)N1CCC[C@H]1C(=O)N[C@@H](CCCNC(=N)N)C(=O)N[C@H](C(=O)N[C@@H](CC(N)=O)C(=O)N[C@H](C(=O)NCC(=O)N[C@@H](CO)C(=O)N[C@@H](CCCCN)C(=O)N[C@@H](C)C(=O)N[C@@H](Cc1ccccc1)C(N)=O)C(C)C)[C@@H](C)O)[C@@H](C)O [compound 2] (H-ACDTASCVLGRLSQELHRLQTYPRTNVGSKAF-NH2; disulfide 2-7 (inferred))	5 nM
CC(C)C[C@H](NC(=O)[C@H](CCCNC(=N)N)NC(=O)CNC(=O)[C@H](CC(C)C)NC(=O)[C@@H](NC(=O)[C@@H]1CSSC[C@H](NC(=O)[C@H](C)N)C(=O)N[C@@H](CC(N)=O)C(=O)N[C@@H](CC(C)C)C(=O)N[C@@H](CO)C(=O)N[C@@H](C(C)C)C(=O)N1)C(C)C)C(=O)N[C@@H](CO)C(=O)N[C@@H](CCC(N)=O)C(=O)N[C@@H](CCC(=O)O)C(=O)N[C@@H](CC(C)C)C(=O)N[C@@H](Cc1c[nH]cn1)C(=O)N[C@@H](CCCNC(=N)N)C(=O)N[C@@H](CC(C)C)C(=O)N[C@@H](CCC(N)=O)C(=O)N[C@H](C(=O)N[C@@H](Cc1ccc(O)cc1)C(=O)N1CCC[C@H]1C(=O)N[C@@H](CCCNC(=N)N)C(=O)N[C@H](C(=O)N[C@@H](CC(N)=O)C(=O)N[C@H](C(=O)NCC(=O)N[C@@H](CO)C(=O)N[C@@H](CCCCN)C(=O)N[C@@H](C)C(=O)N[C@@H](Cc1ccccc1)C(N)=O)C(C)C)[C@@H](C)O)[C@@H](C)O [compound 11] (H-ACNLSVCVLGRLSQELHRLQTYPRTNVGSKAF-NH2; disulfide 2-7 (inferred))	9 nM
CC(C)C[C@H](NC(=O)[C@H](CCCNC(=N)N)NC(=O)CNC(=O)[C@H](CC(C)C)NC(=O)[C@@H](NC(=O)[C@@H]1CSSC[C@H](NC(=O)[C@H](C)N)C(=O)N[C@@H](CC(=O)O)C(=O)N[C@@H]([C@@H](C)O)C(=O)N[C@@H](C)C(=O)N[C@@H](C)C(=O)N1)C(C)C)C(=O)N[C@@H](CO)C(=O)N[C@@H](CCC(N)=O)C(=O)N[C@@H](CCC(=O)O)C(=O)N[C@@H](CC(C)C)C(=O)N[C@@H](Cc1c[nH]cn1)C(=O)N[C@@H](CCCNC(=N)N)C(=O)N[C@@H](CC(C)C)C(=O)N[C@@H](CCC(N)=O)C(=O)N[C@H](C(=O)N[C@@H](Cc1ccc(O)cc1)C(=O)N1CCC[C@H]1C(=O)N[C@@H](CCCNC(=N)N)C(=O)N[C@H](C(=O)N[C@@H](CC(N)=O)C(=O)N[C@H](C(=O)NCC(=O)N[C@@H](CO)C(=O)N[C@@H](CCCCN)C(=O)N[C@@H](C)C(=O)N[C@@H](Cc1ccccc1)C(N)=O)C(C)C)[C@@H](C)O)[C@@H](C)O [compound 1] (H-ACDTAACVLGRLSQELHRLQTYPRTNVGSKAF-NH2; disulfide 2-7 (inferred))	17 nM
CC(C)C[C@H](NC(=O)[C@H](CCCNC(=N)N)NC(=O)CNC(=O)[C@H](CC(C)C)NC(=O)[C@@H](NC(=O)[C@@H]1CSSC[C@H](N)C(=O)N[C@@H](CO)C(=O)N[C@@H](CC(N)=O)C(=O)N[C@@H]([C@@H](C)O)C(=O)N[C@@H](C)C(=O)N[C@@H](C(C)C)C(=O)N1)C(C)C)C(=O)N[C@@H](CO)C(=O)N[C@@H](CCC(N)=O)C(=O)N[C@@H](CCC(=O)O)C(=O)N[C@@H](CC(C)C)C(=O)N[C@@H](Cc1c[nH]cn1)C(=O)N[C@@H](CCCNC(=N)N)C(=O)N[C@@H](CC(C)C)C(=O)N[C@@H](CCC(N)=O)C(=O)N[C@H](C(=O)N[C@@H](Cc1ccc(O)cc1)C(=O)N1CCC[C@H]1C(=O)N[C@@H](CCCNC(=N)N)C(=O)N[C@H](C(=O)N[C@@H](CC(N)=O)C(=O)N[C@H](C(=O)NCC(=O)N[C@@H](CO)C(=O)N[C@@H](CCCCN)C(=O)N[C@@H](C)C(=O)N[C@@H](Cc1ccccc1)C(N)=O)C(C)C)[C@@H](C)O)[C@@H](C)O [compound 12] (H-CSNTAVCVLGRLSQELHRLQTYPRTNVGSKAF-NH2; disulfide 1-7 (inferred))	9 nM
